# In PubChem BioAssay AID651568 (National Center for Advancing Translational Sciences (NCATS), 2012):
# Several values for one entry are separate records, joined by “and”; a condition that tells them apart may be missing. Equal entries are not always repeated. Among all 1,200 compounds or so, about 55 (5%) were called active. Inconclusive results, whose numbers are uncertain, are shown with a selection of clear calls. The call rests on the fitted dose curve; in most records, active means well fitted inhibition curve with a large enough effect; inconclusive means small, poorly fitted or top-dose-only effect; inactive means no such curve, though single readings can be large or run the other way. Potencies beside an inconclusive call are fits to weak or partial responses and may not hold up.
# Assay: qHTS Assay to Find Inhibitors of Chronic Active B-Cell Receptor Signaling: Hit Validation in Renilla Reporter Assay; further: nearly all actives have a fitted effect of over 70% in size
# Settings: TMD8 IkB-Renilla luciferase reporter, NF-kB signaling; series mostly up to 57.5 µM; activity change, negative = inhibition: at the top concentration
# How it was run: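 Dual-Glo luminescence read-out of constitutively expressed IkB-Photinus/Renilla luciferase reporters in ABC-DLBCL lines, used to retest primary hits; reporter enzymes differ from the click beetle luciferases used in the primary screen.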
# On the % scale 0 is the no-effect control and ±100 the full control effect; potency means the concentration at half of the fitted maximal effect; tags describe the fitted curve by direction and shape.
Compound,Potency,"activity change, negative = inhibition"
O=S1(=O)C=C(Sc2nc3cc(Cl)ccc3o2)c2ccccc21,active: 8.49 µM,–
CCN(CC)c1ccc2c(c1)OC(N)=C(C#N)C2c1cccnc1 (stereo not given),"inconclusive: 33.8 µM [inhibitor, single point]",–
CC(C)Oc1ccccc1C1CC(=O)Nc2cc3c(cc21)OCCO3 (stereo not given),"inconclusive: 26.9 µM [inhibitor, partial curve]",–
O=c1c2cc(F)ccc2sn1-c1ccccc1,"inconclusive: 37.9 µM [inhibitor, single point]",–
S=C(Nc1ccccn1)c1ccccn1,"inconclusive: 30.1 µM [inhibitor, single point]",–
COc1ccc(-c2cnc3c(c2)CCC3(C#N)C#N)cc1,"inconclusive: 23.9 µM [inhibitor, partial curve]",–
COc1cc(/C=C/c2ccc3cccc(O)c3n2)c(Br)cc1O,"inconclusive: 15.1 µM [inhibitor, partial curve]",–
COc1cc(Nc2c3c(nc4ccccc24)CCC3)cc(OC)c1OC,"inconclusive: 37.9 µM [inhibitor, single point]",–
C=CCNC(=S)N/N=C/c1cn(C)c2ccccc12,–,inactive: 6.14%
Clc1ccc(C2=Nn3c(nnc3-c3cc(-c4ccccc4)n[nH]3)SC2)cc1,"inconclusive: 33.8 µM [inhibitor, single point]",–
COc1ccccc1NC(=O)c1c(N=Cc2c(O)ccc3ccccc23)cnn1C,"inconclusive: 10.7 µM [inhibitor, partial curve]",–
O=S(=O)(Nc1cccc2ncccc12)c1cccs1,"inconclusive: 2.39 µM [inhibitor, full curve]",–
O=C(NN=C(c1ccccc1)c1ccccn1)c1ccccc1,active: 26.9 µM,–
Cc1cc(C(=O)OCC(=O)NCc2ccco2)c(C)n1-c1ccc(F)cc1,"inconclusive: 21.3 µM [inhibitor, single point]",–
CCn1c(=O)c([N+](=O)[O-])c(Cl)c2ccccc21,active: 2.39 µM,–
O=C(Oc1ccc(F)cc1C(=O)/C=C/c1cccs1)c1cccc([N+](=O)[O-])c1,"inconclusive: 21.3 µM [inhibitor, partial curve, poor fit]",–
ClCc1nc2ccccc2c2ccccc12,active: 23.9 µM,–
S=c1nc2ccccc2c2nc(-c3ccccc3Br)[nH]n12,"inconclusive: 37.9 µM [inhibitor, single point]",–
Cc1ccc(C)c(-n2c3nc(=O)[nH]c(=O)c-3cc3cc([N+](=O)[O-])ccc32)c1,active: 16.9 µM,–
COc1ccc(Nc2nc(N)nc(CCl)n2)cc1,"inconclusive: 37.9 µM [inhibitor, single point]",–
CC1CCc2c(sc(NC(=O)CSc3nc(N)cc(=O)[nH]3)c2C(N)=O)C1 (stereo not given),–,inactive: -9.45%
CCOC(=O)c1c(C)[nH]c(C(=O)N/N=C/c2ccc(Br)cc2)c1C,active: 10.7 µM,–
N#CC1=C(N)C(C#N)(C#N)[C@H](c2cccnc2)[C@H]2CN(C(=O)OCc3ccccc3)CC=C12,"inconclusive: 23.9 µM [inhibitor, single point]",–

Compound,Potency,"activity change, negative = inhibition"
Cc1cc(Cl)n2c(nc3ccccc32)c1C#N,active: 1.9 µM,–
Cc1ccc(/C=N/NC(=O)c2cc(-c3ccncc3)nc3ccccc23)o1,–,inactive: 1.04%
Cc1ccc([N+](=O)[O-])cc1N=Nc1c(-c2ccc([N+](=O)[O-])cc2)[nH]n(C(N)=S)c1=O,"inconclusive: 2.69 µM [inhibitor, full curve]",–
Cc1c(C(=O)Oc2cccc3cccnc23)oc2ccccc12,–,inactive: -6%
O=Cc1cc2ccccc2nc1SCc1ccc(Cl)c(Cl)c1,"inconclusive: 30.1 µM [inhibitor, single point]",–
CCOC(=O)C1=C(C2=CCCCC2)c2ccc(OC)cc2N(S(=O)(=O)C(F)(F)F)C1C(=O)OCC (stereo not given),"inconclusive: 37.9 µM [inhibitor, single point]",–
Cc1ccc(O)c(N=Nc2nccs2)c1,"inconclusive: 30.1 µM [inhibitor, single point]",–
O=C1OCC2=C1C(c1ccc(F)cc1)c1cc3c(cc1N2)OCO3 (stereo not given),"inconclusive: 0.269 µM [inhibitor, full curve, poor fit]",–
CC(C)(C)c1ccc(C(=O)CCC(=O)NCc2ccccc2)cc1,–,inactive: -2.67%
CC(C)NC(=S)N=Nc1c(O)[nH]c2ccc([N+](=O)[O-])cc12,"inconclusive: 30.1 µM [inhibitor, single point]",–
S=c1nc2ccccc2c2nc(-c3ccccc3Cl)[nH]n12,–,inactive: -27.4%
CCOc1ccc2nc(N3C(=O)CNC3=S)sc2c1,"inconclusive: 23.9 µM [inhibitor, single point]",–
CCOC(=O)C1=C(O)c2ccccc2C(=O)/C1=C\c1ccc(CC)cc1,"inconclusive: 37.9 µM [inhibitor, single point]",–
COc1ccc(-c2cc(C(F)(F)F)n3nc(C(=O)NCCCn4ccnc4)cc3n2)cc1,"inconclusive: 15.1 µM [inhibitor, partial curve]",–
COc1cccc(-c2nnc(Nc3nc4c(F)cccc4s3)o2)c1,"inconclusive: 30.1 µM [inhibitor, single point]",–
CC1=NN(C(N)=S)C(=O)C1N=Nc1ccc(C)c(Br)c1 (stereo not given),"inconclusive: 33.8 µM [inhibitor, single point]",–
O=c1cc(CSc2ccc(Cl)cc2)nc(-c2ccccn2)[nH]1,"inconclusive: 4.78 µM [inhibitor, full curve]",–
C=CCn1c(O)c(N=NC(=S)Nc2ccccc2F)c2cc(S(=O)(=O)N3CCOCC3)ccc21,"inconclusive: 7.57 µM [inhibitor, single point]",–
Oc1ccc(NCc2cccc(OCc3ccccc3)c2)cc1,"inconclusive: 15.1 µM [inhibitor, partial curve]",–
NC(=S)n1[nH]c(-c2ccc([N+](=O)[O-])cc2)c(N=Nc2cccc(Cl)c2)c1=O,"inconclusive: 7.57 µM [inhibitor, full curve]",–
COc1cc(OC)cc(C(=O)NCC(=O)Nc2ccc(-c3ccccc3)cc2)c1,–,inactive: -2.62%
Cc1ccc(S(=O)(=O)Cc2ccc(C(=O)N3CCN(c4cccc(C)c4C)CC3)o2)cc1,"inconclusive: 30.1 µM [inhibitor, single point] and inconclusive: 37.9 µM [inhibitor, single point]",–
